About 5,000 (1.2%) of roughly 410,000 compounds were called active. This list was built around the results that the source calls inconclusive (neither active nor inactive); the mix of calls is not that of the screen. Calls come from the whole dose curve; as a rule, active = well fitted inhibition curve with a large enough effect; inconclusive = small, poorly fitted or top-dose-only effect; inactive = no such curve, though single readings can be large or run the other way. Potencies beside an inconclusive call are fits to weak or partial responses and may not hold up.
Test: qHTS for Inhibitors of TGF-b; note: nearly all actives have a fitted effect of over 65% in size
Settings: HepG2 CAGA-GFP TGF-b/SMAD3 reporter, GFP fluorescence, 18 h, TGF-beta stimulated, 500 pg/mL final; series mostly up to 46.1 µM; activity, negative = inhibition: at the top concentration
Procedure, shortened: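 Read-out: total well GFP (ex488/em500-530) summed from mean per-cell fluorescence. Cells: HEPG2 CAGA-GFP, 1% FBS DMEM, 18 h at 37 degrees C with 500 pg/mL final TGF-beta. Unstimulated wells served as the full-inhibition control; stimulated DMSO wells = 0%.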
% is set by controls: 0 for no effect and ±100 for the full control effect; potency is the fitted concentration of half-maximal effect; tags give direction and shape of the fitted curve.

Row | SMILES | Potency | activity, negative = inhibition
1 | CCc1ccc(CNC(=O)CSc2cc(=O)n(CC)c3ccccc23)cc1 | inconclusive: 10 µM [inhibitor, partial curve, poor fit] | 
2 | COCCN(C(=O)CCSc1ccc(F)cc1)c1c(N)n(Cc2ccccc2)c(=O)[nH]c1=O |  | inactive: 4.76%
3 | O=C(Nc1ccc(S(=O)(=O)Nc2cnc3ccccc3n2)cc1)c1cc(F)c(F)cc1Cl | inconclusive: 15.8 µM [inhibitor, single point] | 
4 | O=C1C(Cl)=C(NCCCO)C(=O)c2ccccc21 | inconclusive: 20 µM [inhibitor, partial curve, poor fit] | 
5 | Oc1ccc(-c2[nH]ncc2-c2ccc(Br)cc2)c(O)c1 | inconclusive: 35.5 µM [inhibitor, single point] | 
6 | Cc1nn(-c2ccccc2)c(C)c1NC(=O)COc1cc(F)ccc1[N+](=O)[O-] | inconclusive: 14.1 µM [inhibitor, single point] | 
7 | O=C(c1cc2nc(-c3ccccc3)cc(C(F)(F)F)n2n1)N1CCCC1 |  | inactive: -5.52%
8 | CCOc1ccc(N(C(C)C(=O)N/N=C(\C)C(C)(C)C)S(C)(=O)=O)cc1 (stereo unspecified) | inconclusive: 12.6 µM [inhibitor, partial curve, poor fit] | 
9 | COc1ccc(-c2cn3c(n2)sc2cc(C(=O)NCCCN4CCCCC4)ccc23)cc1 | inconclusive: 35.5 µM [inhibitor, single point] | 
10 | CC1CCN(S(=O)(=O)c2ccc(NC(=O)CCN3C(=O)c4ccccc4C3=O)cc2)CC1 | inconclusive: 6.31 µM [inhibitor, single point] | 
11 | COc1ccc(NC(=O)CN2C(=O)CCc3cc(S(=O)(=O)N4CCOCC4)ccc32)c(OC)c1 | inconclusive: 1 µM [inhibitor, full curve, poor fit] | 
12 | C[C@H]1CN([C@@H](C)CO)C(=O)Cc2cc(NC(=O)CCC(F)(F)F)ccc2O[C@H]1CN(C)S(=O)(=O)c1ccc(F)cc1 |  | inactive: -4.32%
13 | Cc1nc2ccccc2c2oc(C(=O)NCC3CCCO3)cc12 (stereo unspecified) | inconclusive: 0.112 µM [inhibitor, full curve, poor fit] | 
14 | Cc1cccc(C)c1NS(=O)(=O)c1ccc2c(c1)[C@H]1C=CC[C@H]1[C@@H](c1ccc(Cl)cc1)N2 | inconclusive: 35.5 µM [inhibitor, single point] | 
15 | Oc1ccccc1CN1CCN(C(O)(c2ccccc2)c2ccccc2)CC1 | inconclusive: 20 µM [inhibitor, partial curve, poor fit] | 
16 | O=C1C(=O)N(C/C=C/c2ccccc2)c2ccccc21 | inconclusive: 25.1 µM [inhibitor, single point] | 

From PubChem BioAssay AID588855 (National Center for Advancing Translational Sciences (NCATS), 2011)
